B1: LINE1-mini (parent)
chain: GGCAGAGCUCAACACAGCGUGGCAAAGUGGCUGUGGCUAGACUGCC

The source gives no read counts; variants with many changes may rest on few reads.

Variants of B1 are the subject of the data set. In words: self-cleavage, relative activity (ratio to wild type); higher = more cleavage; in vitro, sequencing; the parent is a self-cleaving ribozyme.
As for GGCAGAGCUCAACACAGCCUGGCAAAGUUGUUGUGGCUAGGCUGCC [G19C G29U C31U A41G], the self-cleavage was 0.01. Next, GGCAGAGCUCAACACAGCUUGGCAAUGUGGCUGUGGAUAGACUGCC [G19U A26U C37A]: 0.03; GGCAGAGCUCAACACAGCCUGGCAAAGUGGCUGUGGUUAGAGUGCC [G19C C37U C42G]: 0; GGCAGAGCUCAACACAGCCGGGCAAGGUGGCUGUGGCUAGACUGCC [G19C U20G A26G]: 0.2. Next, GGCAGAGCUCAACACAGCCUGUCAAAGGGGCUGUGGCUAGACUGCC [G19C G22U U28G]: 0.38. GGCAGAGCUCAACACAGCCUAGCAAAGUUGCUGUGGCUAGACUGCC [G19C G21A G29U]: the self-cleavage was found to be 0.26. Next, GGCAGAGCUCAACACAGCAUGGCAAAGUGGCUGUGCCUAGACUGCU [G19A G36C C46U]: 0.06; GGCAGAGCUCAACACAGCUUGGCAAAGUGGAUGUGGCUAGAAUGCC [G19U C31A C42A]: 0.04. Next, GGCAGAGCUCAACACAGCUUGGCAUAGUGGCUCUGGCUAGACUGCC [G19U A25U G33C]: 0.05; GGCAGAGCUCAACACAGCCUGGCAAAGUGGCUAUGGCUAAACUAAC [G19C G33A G40A G44A C45A]: 0.03. Next, GGCAGAGCUCAACACAGCUUAGCAAAGUGGCUGUUGCUAGACUGCC [G19U G21A G35U]: 0.21; GGCAGAGCUCAACACAGCAUGGCAAAGUGGCUGUGGCCAGAAUUCC [G19A U38C C42A G44U]: 0.03. Take GGCAGAGCUCAACACAGCUUGGCAUAGUGACUGUGGCUAGACUGCC [G19U A25U G30A]: the self-cleavage is 1.02. Take GGCAGAGCUCAACACAGCCGGGCAAAGUGGCUGUGGCUAGCCUGCC [G19C U20G A41C]: the self-cleavage was found to be 0.04. Next, GGCAGAGCUCAACACAGCCUGGUAGAGUGGCUGUGGUUAGACUGCU [G19C C23U A25G C37U C46U]: 0. Next, GGCAGAGCUCAACACAGCUUGGCAAAGUGGCUGUGGCUAGAUCGCC [G19U C42U U43C]: 0.07; GGCAGAGCUCAACACAGCCUGGCAAAGUGGCUGUGGCUUGACUUCC [G19C A39U G44U]: 0.1; GGCAGAGCUCAACACAGCCUGGCAAAAUGGCUGUGACUGGACUGCC [G19C G27A G36A A39G]: 0.03. Next, GGCAGAGCUCAACACAGCCUGGCAAAGUGCCUGUGGCUAGCCUGCC [G19C G30C A41C]: 0.05; GGCAGAGCUCAACACAGCUUGGGAAAGUGGCCGUGGCUAGACUGCC [G19U C23G U32C]: 0.06; GGCAGAGCUCAACACAGCCUGGCAAAGUGGCUGUGGAUCUACUGCC [G19C C37A A39C G40U]: 0. Take GGCAGAGCUCAACACAGCUUGGCAAACUGGCUGUGGCUAGACUGCU [G19U G27C C46U]: the self-cleavage came to 0.49. Next, GGCAGAGCUCAACACAGCCUGGCAAAGUGGUUGUGGCUUGACUGUC [G19C C31U A39U C45U]: 0.74. Next, GGCAGAGCUCAACACAGCUUAGCAAUGUUGCUGUGGCUAGGCUGCC [G19U G21A A26U G29U A41G]: 0.49. Next, GGCAGAGCUCAACACAGCUUGGCAAACUGUCUGUGGCUAGACUGCC [G19U G27C G30U]: 0.03; GGCAGAGCUCAACACAGCCUGGCAAAGUGGCUCUAGCUAGACUGCC [G19C G33C G35A]: 0.17; GGCAGAGCUCAACACAGCUUGGCAACGUGCCUGUGGCUCGACUGCC [G19U A26C G30C A39C]: 0.22. In the case of GGCAGAGCUCAACACAGCUUGGCAAAUUGGCUGUGGCUAGAUGGCC [G19U G27U C42U U43G], the self-cleavage was determined as 0.01. Next, GGCAGAGCUCAACACAGCCUGGUAAACUGGCUGUAGCCAUACUGCC [G19C C23U G27C G35A U38C G40U]: 0.09; GGCAGAGCUCAACACAGCUUGUCAAAUUGGCUGUGGCUAGACUGCC [G19U G22U G27U]: 0.13. Next, GGCAGAGCUCAACACAGCCUGGCAAAGUGGCUGUGGCUGGACUGCG [G19C A39G C46G]: 0.05.

For the variant GGCAGAGCUCAACACAGCCUGGCAAGGUGGCUGUGGCUAGACUGCU [G19C A26G C46U], the self-cleavage turned out to be 0.93. In the case of GGCAGAGCUCAACACAGCCUGGCAAAGUGGCUGUGGCUAGAGUUUC [G19C C42G G44U C45U], the self-cleavage is 0. Next, GGCAGAGCUCAACACAGCUUGGCAACGUUGCUGUGGAUAGACUGCC [G19U A26C G29U C37A]: 0.22; GGCAGAGCUCAACACAGCUUGGCGUAUUGGCUGUGGCUAGACUGCC [G19U A24G A25U G27U]: 0.5. Next, GGCAGAGCUCAACACAGCAUGGCAAAGUGGCUGUGCCGAGACUGCC [G19A G36C U38G]: 0.02; GGCAGAGCUCAACACAGCAUGGCAAAGUGGCUUUGGCUAGUCUGCC [G19A G33U A41U]: 0.07. GGCAGAGCUCAACACAGCAUGGCAAAGUGGCUGUGGCUAUACUACC [G19A G40U G44A]: the self-cleavage amounted to 0.05.

Turning to GGCAGAGCUCAACACAGCAUGGCAAAGUGGCUGUUGCUAGACUGAC [G19A G35U C45A], the self-cleavage worked out at 1.41. Next, GGCAGAGCUCAACACAGCCAGGCAAAGUGGCUGUGGCCAGACUGCC [G19C U20A U38C]: 0.09; GGCAGAGCUCAACACAGCCUGGCAAAGUGGCUGUGGCAAAACUGCC [G19C U38A G40A]: 0; GGCAGAGCUCAACACAGCCUGGCAAAGUGGUUGUAGCUAGACUGCC [G19C C31U G35A]: 0.39. Next, GGCAGAGCUCAACACAGCCUGGCAAAGUGUCUGUGGCUAGACUCUC [G19C G30U G44C C45U]: 0.1; GGCAGAGCUCAACACAGCUUGGCAAAGUGGCUGUGGGCAGACUGCC [G19U C37G U38C]: 0.02; GGCAGAGCUCAACACAGCAUGGCAAAGUGGCGGUUCCUUGACUGCC [G19A U32G G35U G36C A39U]: 0.07.

For GGCAGAGCUCAACACAGCCUGGCGAAGUGGCUGGGGCUAGACUGUC [G19C A24G U34G C45U], the self-cleavage was 0.38.

Consider GGCAGAGCUCAACACAGCUUGUCAAGGUGGCUGUGGCUAGACUGCC [G19U G22U A26G], for which the self-cleavage was determined as 0.6. Next, GGCAGAGCUCAACACAGCAUGGCAAAGUGGCUAGGGCUAGACCCCC [G19A G33A U34G U43C G44C]: 0.02; GGCAGAGCUCAACACAGCCUGGCAAAGUGGGUGUGGCUAGACUCCC [G19C C31G G44C]: 0.16. Next, GGCAGAGCUCAACACAGCUUGGCAAUGUGCCUGUGGCUAGACUGCC [G19U A26U G30C]: 0.43; GGCAGAGCUCAACACAGCUUGGCCAAGUGGCGGUGGCUAGACUGCC [G19U A24C U32G]: 0.01. With GGCAGAGCUCAACACAGCCAGGCAAUGUGGCUGAGGCUAGACUGCC [G19C U20A A26U U34A], the self-cleavage was found to be 0.1. Next, GGCAGAGCUCAACACAGCCUGGCUAAGUGGCUGUGGCUACACUGCC [G19C A24U G40C]: 0.12; GGCAGAGCUCAACACAGCUUGCCAAAGUGGCUGUGUGUAGACUGUC [G19U G22C G36U C37G C45U]: 0.02; GGCAGAGCUCAACACAGCUUGGCAAAGUUGCUGUGGGUAGACUGCC [G19U G29U C37G]: 0.03. Next, GGCAGAGCUCAACACAGCUUGGCAAAGUUGCUGUGGUUAGACUGCC [G19U G29U C37U]: 0.02.

The values are drawn from the RNAGym collection of RNA variant scans (doi:10.7554/elife.90254).
